Data from patent publication EP0071433A1, “Medicine for the treatment of diabetes” (KOWA COMPANY, LTD., priority 1981, dated 1983).
Where a name gives a salt, the structure may show the parent alone. At least one read-out could not be matched to a standard name with certainty.

System: Rabbits
Assay: Blood sugar level-lowering action of chymotrypsin inhibitors combined with insulin, determination method A (intraduodenal, rabbits)
Type: in vivo
Conditions: via duodenal catheter, 30 minutes after administration, 250 units of insulin and 100 mg of inhibitor in 20 ml of water, dose of 2 ml/kg

SMILES | Blood sugar level-decreasing ratio (%)
O=C(Cc1cccc2ccccc12)Oc1ccc(C(=O)OCCN2CCN(CC(=O)N3CCOCC3)CC2)cc1 [Compound 4, 4-[[2-[4-(Morpholinocarbonylmethyl)pipera-dino]ethyl]oxycarbonyl]phenylnaphthyl-1-acetate dihydrochloride] | 29
COc1ccc2[nH]c(C)c(CC(=O)Oc3ccc(C(=O)OCCN4CCN(CC(=O)N5CCOCC5)CC4)cc3)c2c1 [Compound 5, 4-[[2-[4-(Morpholinocarbonylmethyl)pipera-dino]ethyl]oxycarbonyl]phenyl 5-methoxy-2-methylindole-3-acetate dihydrochloride] | 36
CCN(CC)CC(C)OC(=O)c1ccc(OC(=O)Cc2c(C)[nH]c3ccc(OC)cc23)cc1 (stereo not drawn) [Compound 6, 4-[(2-Diethylamino-l-methylethyl)oxycarbonyl]-phenyl 5-methoxy-2-methylindole-3-acetate] | 44
CCN(CC)CC(C)OC(=O)C=Cc1ccc(OC(=O)Cc2c(C)[nH]c3ccc(OC)cc23)cc1 (stereo not shown) [Compound 7] | 37
COc1ccc2[nH]cc(CC(=O)Oc3ccc(C(=O)NCCN(C)C)cc3)c2c1 [Compound 8, 4-[(2-Dimethylaminoethyl)carbamoyl]phenyl 5-methoxyindole-3-acetate] | 32
COc1ccc2[nH]c(C)c(CC(=O)Oc3ccc(C=CC(=O)OCCN4CCCCC4)cc3)c2c1 [Compound 9, 4-[2-[(2-Piperidinoethyl)oxycarbonyl]ethenyl]-phenyl 5-methoxy-2-methylindole-3-acetate] | 35
COc1ccc2[nH]c(C)c(CC(=O)Oc3ccc(C=CC(=O)OC(C)CN(C)C)cc3)c2c1 (stereo not drawn) [Compound 10, 4-[2-[(2-Dimethylamino-l-methylethyl)oxycarbonyl]ethenyl]phenyl 5-methoxy-2-methylindole-3-acetate] | 51
COc1ccc2[nH]c(C)c(CC(=O)Oc3ccc(C(=O)OCCN4CCCCC4)cc3)c2c1 [Compound 11, 4-[(2-Piperidinoethyl)oxycarbonyl]phenyl 5-methoxy-2-methylindole-3-acetate] | 48
COc1ccc2[nH]c(C)c(CC(=O)Oc3ccc(CC(=O)OCCOC(=O)C(N)CCCCN)cc3)c2c1.Cl.Cl (stereo not shown) [Compound 12, 4-[[2-(1,5-Diamino-n-pentylcarbonyloxy)-ethyl]oxycarbonylmethyl]phenyl 5-methoxy-2-methylindole-3-acetate dihydrochloride] | 26
COc1ccc2[nH]c(C)c(CC(=O)Oc3ccc(CC(=O)NCCOC(=O)C(N)CCCCN)cc3)c2c1 (stereo not shown) [Compound 13, 4-[[2-(l,5-Diamino-n-pentylcarbonyloxy)-ethyl]carbamoylmethyl]phenyl 5-methoxy-2-methylindole-3-acetate dihydrochloride] | 29
NCCCCC(N)C(=O)OCCOC(=O)Cc1ccc(OC(=O)C2CCCc3ccccc32)cc1 (stereo not drawn) [Compound 14, 4-[[2-(1,5-Diamino-n-pentylcarbonyloxy)-ethyl]oxycarbonylmethyl]phenyl 1,2,3,4-tetrahydro-l-naphthoate dihydrochloride] | 37
NCCCCC(N)C(=O)OCCNC(=O)Cc1ccc(OC(=O)C2CCCc3ccccc32)cc1 (stereo not drawn) [Compound 15, 4-[[2-(l,5-Diamino-n-pentylcarbonyloxy)ethyl]-carbamoylmethyl]phenyl 1,2,3,4-tetrahydro-l-naphthoate dihydrochloride] | 32
CN(C)CCNC(=O)c1ccc(OC(=O)c2cccc3c2CCCC3)cc1 [Compound 16, 4-[(2-Dimethylaminoethyl)carbamoyl]phenyl 5,6,7,8-tetrahydro-l-naphthoate hydrochloride] | 26
COc1ccc2[nH]c(C)c(CC(=O)Oc3ccc(C(=O)NCCN(C)C)cc3)c2c1.O=C(O)/C=C\C(=O)O [Compound 17, 4-[(2-dimethylaminoethyl)carbamoyl]phenyl 5-methoxy-2-methylindol-3-acetate maleate] | 40
CN(C)CCNC(=O)c1ccc(OC(=O)C2CCCc3ccccc32)cc1 (stereo not drawn) [Compound 18, 4-[(2-Dimethylaminoethyl)carbamoyl]phenyl 1,2,3,4-tetrahydro-l-naphthoate hydrochloride] | 35
CN1CCN(C(=O)c2ccc(OC(=O)C3CCCc4ccccc43)cc2)CC1 (stereo not shown) [Compound 19, 1-Methyl-4-[4-(1,2,3,4-tetrahydro-1-naph-thoyloxy)benzoyl]piperazine hydrochloride] | 32
